Measured values as given in PubChem BioAssay AID686979 (National Center for Advancing Translational Sciences (NCATS), 2013).
In all, about 420,000 compounds went through this assay and about 50,000 (12%) were called active. The inconclusive results got no clear call from the source; some entries with a clear call stand among them for comparison. Calls come from the whole dose curve; as a rule, active = well fitted inhibition curve with a large enough effect; inconclusive = small, poorly fitted or top-dose-only effect; inactive = flat fitted curve, though single readings scatter. Potencies of inconclusive entries are left out as doubtful fits.

Assay: qHTS for Inhibitors of human tyrosyl-DNA phosphodiesterase 1 (TDP1): qHTS in cells in presence of CPT; note: nearly all actives have a fitted effect of over 55% in size
Conditions: chicken DT40 Tdp1-/-;hTDP1 cells + 20 nM CPT, ATP luminescence, 48 h; series mostly up to 46.2 µM
How it was run: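 Chicken DT40 Tdp1-/- cells stably complemented with human TDP1 were seeded at 400 cells/well in medium containing 20 nM camptothecin, exposed to pin-transferred compounds, and grown at 37 °C for at least 48 hr. Viability was read as ATP luminescence.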
Potency is the fitted concentration of half-maximal effect; tags give direction and shape of the fitted curve.

SMILES	Potency
O=C(NCCN1CCOCC1)c1cc(Sc2ccc(F)cc2F)nc2ccccc12	inconclusive [inhibitor, single point]
CC(C(=O)O)n1c2ccccc2c2cn[nH]c(=O)c21 (configuration not stated)	inconclusive [inhibitor, single point]
CCOC(=O)C1CCCN(C(=O)Cc2ccc(OC)c(OC)c2)C1 (configuration not stated)	inactive
Cc1cccc(CN2CCC(Oc3ccc(C(=O)N4CCCCC4)cc3)CC2)c1	inconclusive [inhibitor, single point]
O=C(CSc1nnc(-c2ccccn2)n1Cc1ccco1)c1ccc(Cl)cc1	active: 16.4 µM
COc1ccc(Nc2nnc(SCC(=O)c3cc4ccccc4o3)s2)cc1	inconclusive [inhibitor, single point]
Cc1c(Cl)cccc1NC(=O)CC1Sc2ccccc2NC1=O (configuration not stated)	inconclusive [inhibitor, single point]
CCOC(=O)N1CCc2c(sc3ncn(C)c(=O)c23)C1	inactive
COc1cc(/C=C2\SC(=Nc3ccccc3)NC2=O)cc(Cl)c1O	inconclusive [inhibitor, single point]
CCc1ccc(OCC(=O)NC(NC(=S)Nc2ccccc2)C(Cl)(Cl)Cl)cc1 (configuration not stated)	inconclusive [inhibitor, single point]
CCOC(=O)N1CCN(C(=O)C[C@@H]2C[C@@]3(C(=O)OCC)CCCC=C3N(Cc3ccc(Cl)cc3Cl)C2=O)CC1	active: 20.6 µM
CCCNC(=O)C1CN(S(=O)(=O)c2ccc(Cl)s2)c2ccccc2O1 (configuration not stated)	inconclusive [inhibitor, single point]
CC(C)c1ccc(NC(=O)c2ccc3c(c2)CCN3S(C)(=O)=O)cc1	active: 20.6 µM
C[C@]1(CO)CCC[C@@]2(C)C1CC[C@@H](CO)[C@@H]2CCc1ccoc1 (some centres not stated)	inconclusive [inhibitor, partial curve]
CCCCC(=O)NC(NC(=S)N1CCCCCC1)C(Cl)(Cl)Cl (configuration not stated)	active: 13 µM
COc1ccc(-n2ncc(C(=O)N3CCN(c4ccc(F)cc4)CC3)c2C)cc1	inactive
CCOC(=O)c1ccc(N2C(=O)c3n[nH]c(C)c3C2c2ccccc2OC)cc1 (configuration not stated)	active: 16.4 µM
N#Cc1ccc(C(=O)NCc2ccc3c(c2)CCN3C(=O)c2ccc(F)cc2)cc1	inconclusive [inhibitor, single point]
COc1ccc2c(C)cc(N3CCOCC3)nc2c1	inactive
O=c1c2ccccc2nc(/C=C/c2ccccc2)n1CCCO	inconclusive [inhibitor, single point]
Cc1nc(NCc2ccco2)c2oc3ccccc3c2n1	inconclusive [inhibitor, single point]
O=C(c1ccccc1Cl)N(Cc1ccc(Br)cc1)N1C(=O)CCCC1=O	inconclusive [inhibitor, single point]
O=C(CN1CCN(c2nc(-c3ccccc3)cs2)CC1)NCc1ccc2c(c1)OCO2	inconclusive [inhibitor, single point]
COC(=O)N1CCC[C@@]2(CCN(C(=O)Nc3cccc(C#N)c3)C2)C1	inconclusive [inhibitor, partial curve]

SMILES	Potency
COC(=O)c1ccc(NC(=O)CN(CCc2ccccc2)S(=O)(=O)c2ccc(OC)cc2)cc1	inconclusive [inhibitor, single point]
O=C(Cn1[nH]c(=O)c2ccccc2c1=O)NC1CCN(Cc2ccccc2)CC1	inconclusive [inhibitor, partial curve]
S=C(NCCc1ccccc1)N1CCn2cccc2C1c1cccnc1 (configuration not stated)	inconclusive [inhibitor, single point]
Nc1ccc2nc(SCc3ccc([N+](=O)[O-])cc3)sc2c1	inconclusive [inhibitor, single point]
Cc1cccc2sc(NNC(=O)c3cc(=O)c4ccccc4o3)nc12	inconclusive [inhibitor, single point]
O=C(COc1ccccc1F)Nc1ccccc1C(=O)NC1CC1	inactive
Cc1cccc(CCNc2ncnc3onc(-c4ccc(Cl)cc4)c23)c1	inconclusive [inhibitor, single point]
COc1ccc(OC)c(S(=O)(=O)N2CCN(C34CC5CC(CC(C5)C3)C4)CC2)c1	inconclusive [inhibitor, single point]
COc1cccc(N2CCN(c3ccc4nnc(CCC(=O)Nc5ccc(F)cc5)n4n3)CC2)c1	inactive
COc1cc(OC)cc(C(=O)NCC(=O)OC(C)C(=O)NC(C)C2CC3CCC2C3)c1 (configuration not stated)	inactive
COc1cc(C(C)=O)ccc1Oc1ncnc2c1cnn2-c1ccc(C)c(C)c1	active: 11.6 µM
Cc1ccc(N(Cc2ccccc2)C(=O)c2cc(S(=O)(=O)N3CCOCC3)ccc2N2CCCC2)cc1	active: 20.6 µM
CN(Cc1ccccc1)C(=O)CCCn1c(=O)[nH]c2cc(Cl)ccc2c1=O	inconclusive [inhibitor, single point]
CN1CCN(C(=O)c2cccc(S(=O)(=O)N3CCCC3)c2)CC1	inactive
Cc1cccc(Cn2nc(C)n3c(cc4cc(C)ccc43)c2=O)c1	inactive
C=CCNC(=O)COC(=O)c1cccnc1Nc1ccccc1F	inactive
CC(C)(C)Cc1c(-c2cccc(Cl)c2)nc2ccc(Cl)cn12	inconclusive [inhibitor, single point]
CNC(=O)COc1ccc(S(=O)(=O)Nc2ccccc2)cc1	inactive
CCNC(=O)COC(=O)c1ccc(NS(=O)(=O)c2ccc3c(c2)OCCO3)cc1	inactive
CSc1ncc(CN2CCc3c([nH]c4ccccc34)C2c2cccc(O)c2)cn1 (configuration not stated)	inconclusive [inhibitor, single point]
Fc1ccccc1N1CCN(C2CCN(Cc3c[nH]c4ccccc34)CC2)CC1	active: 16.4 µM
Cn1c(N2CCC(C(N)=O)CC2)nc2c1c(=O)n(Cc1cccc(Br)c1)c(=O)n2C	inconclusive [inhibitor, single point]
Clc1cc2nc[nH]c2cc1Cl	inactive
N#Cc1ccccc1-c1nc(NCCN2CCOCC2)c2ccccc2n1	inconclusive [inhibitor, single point]

SMILES	Potency
Cc1ccccc1CNc1ncnc2c1ncn2[C@@H]1O[C@H](CO)[C@@H](O)[C@H]1O	inconclusive [inhibitor, single point]
Cc1ccc(S(=O)(=O)NC(=O)C2(C)CCN2C(=O)C2(c3ccc(Cl)cc3)CCC2)cc1 (configuration not stated)	inactive
COc1ccc(N(C(=O)c2snc(C(N)=O)c2N)C(C(=O)NCc2ccccc2)c2ccc(O)cc2)cc1OC (configuration not stated)	inactive
CC1CCC(C(C)C)C(OC(=O)Cn2nnc3c(cnn3-c3ccccc3)c2=O)C1 (configuration not stated)	inconclusive [inhibitor, single point]
COc1ccc(CCN2C(=O)CC(NC34CC5CC(CC(C5)C3)C4)C2=O)cc1OC (configuration not stated)	inconclusive [inhibitor, single point]
CCn1c(C(=O)NCc2ccc(OC(C)C)cc2)cc2oc3ccccc3c21	inactive
CCC1=NN(C(=O)COc2ccccc2)C(O)(c2ccc(Br)cc2)C1 (configuration not stated)	inconclusive [inhibitor, single point]
Cc1oc2ccc(O)c(CN3CCN(C)CC3)c2c1C(=O)Nc1cccc(Cl)c1C	active: 8.2 µM
COc1ccccc1NC(=O)Cn1c(=O)n(CCc2c[nH]c3ccccc23)c(=O)c2cccnc21	inconclusive [inhibitor, single point]
CCSc1nnc(NC(=O)CSc2nnc(-c3c[nH]c4ccccc34)n2CC)s1	inactive
Cc1ccc2c(c1)c(=O)c1ccccc1n2CCCC(=O)Nc1cc(Cl)ccc1C	inconclusive [inhibitor, single point]
O=S(=O)(Nc1cccc2ncccc12)c1cccc(C(F)(F)F)c1	inconclusive [inhibitor, single point]
CC(OC(=O)c1cc(=O)[nH]c2ccccc12)C(=O)N1C(C)CCCC1C (configuration not stated)	inconclusive [inhibitor, single point]
O=S1(=O)N=C(N/N=C/c2ccccn2)c2ccccc21	inconclusive [inhibitor, single point]
CC(=O)NC(CC(=O)N(C)Cc1c(F)cccc1Cl)c1ccccc1 (configuration not stated)	inactive
Cc1cccc(N2C(=O)C(CC(=O)Nc3ccc(Cl)cc3)N(Cc3ccco3)C2=O)c1 (configuration not stated)	inconclusive [inhibitor, single point]
CCN1CCN(c2nc3ccccc3nc2C(C#N)C(=O)OCc2ccccc2)CC1 (configuration not stated)	active: 23.1 µM
O=[N+]([O-])c1ccc(O)c(C2CCCCC2)c1	inconclusive [inhibitor, single point]
COc1ccccc1NC(=O)c1cc(S(=O)(=O)N2CCN(c3ccccc3Cl)CC2)ccc1F	inconclusive [inhibitor, single point]
CSC1=N/C(=C/c2cccnc2)C(=O)N1Cc1ccccc1	inactive
N#Cc1nc(COc2ccccc2Cl)oc1N1CCCCCC1	inconclusive [inhibitor, single point]
COc1ccc(CC(=O)NNS(=O)(=O)c2ccccc2)cc1OC	inactive
O=C(/C=C/c1ccco1)Nc1ccc2c(c1)OCCO2	inactive
N#Cc1ccccc1NC(=O)c1ccccc1OCC(=O)Nc1ccc2c(c1)oc1ccccc12	inconclusive [inhibitor, single point]
